# Data: the supplement of paper PMC8728848
# This is one part of the list.
# Columns and labels:
# Test in all cases: glycan array binding signal (z-score within array); higher = stronger binding
# Details in all cases: glycan notation: IUPAC condensed, linker removed
# Gal3S(b1-4)GlcNAc = target: Gal3S(b1-4)GlcNAc
# Procedure, shortened: (§1)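 The binding signal is a Z-score computed within each array. Data were drawn from 3228 arrays in the Consortium for Functional Glycomics database, restricted to those with a known protein sequence. Scores were averaged over arrays of the same protein sequence at different concentrations or buffers, and over linkers, and negative values can be taken as non-binding.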
# Gal3S(b1-4)GlcNAc6S = target: Gal3S(b1-4)GlcNAc6S
# Procedure, shortened: as §1
# [1] = target: Gal3S(b1-4)[Fuc(a1-3)]Glc
# Procedure, shortened: as §1
# Gal3S4S(b1-4)GlcNAc = target: Gal3S4S(b1-4)GlcNAc
# Procedure, shortened: as §1
# Gal3S6S(b1-4)GlcNAc = target: Gal3S6S(b1-4)GlcNAc
# Procedure, shortened: as §1
# Gal3S6S(b1-4)GlcNAc6S = target: Gal3S6S(b1-4)GlcNAc6S
# Procedure, shortened: as §1
# Gal4S(b1-4)GlcNAc = target: Gal4S(b1-4)GlcNAc
# Procedure, shortened: as §1
# Gal4S6S(b1-4)GlcNAc = target: Gal4S6S(b1-4)GlcNAc
# Procedure, shortened: as §1
# Gal6S(b1-4)Glc = target: Gal6S(b1-4)Glc
# Procedure, shortened: as §1
# Gal6S(b1-4)Glc6S = target: Gal6S(b1-4)Glc6S
# Procedure, shortened: as §1
# Gal6S(b1-4)GlcNAc = target: Gal6S(b1-4)GlcNAc
# Procedure, shortened: as §1
# Gal6S(b1-4)GlcNAc6S = target: Gal6S(b1-4)GlcNAc6S
# Procedure, shortened: as §1
# GalNAc(a1-3)Gal = target: GalNAc(a1-3)Gal
# Procedure, shortened: as §1
# GalNAc(a1-3)GalNAc = target: GalNAc(a1-3)GalNAc
# Procedure, shortened: as §1
# GalNAc(b1-3)Gal = target: GalNAc(b1-3)Gal
# Procedure, shortened: as §1
# [2] = target: GalNAc(b1-3)Gal(a1-4)Gal(b1-4)GlcNAc
# Procedure, shortened: as §1
# [3] = target: GalNAc(b1-3)Gal(a1-4)Gal(b1-4)GlcNAc(b1-3)Gal(b1-4)Glc
# Procedure, shortened: as §1
# GalNAc(b1-3)GalNAc = target: GalNAc(b1-3)GalNAc
# Procedure, shortened: as §1
# GalNAc(b1-4)GlcNAc = target: GalNAc(b1-4)GlcNAc
# Procedure, shortened: as §1
# [4] = target: GalNAc(b1-4)GlcNAc(b1-2)Man(a1-3)[GalNAc(b1-4)GlcNAc(b1-2)Man(a1-6)]Man(b1-4)GlcNAc(b1-4)GlcNAc
# Procedure, shortened: as §1
# Glc(a1-4)Glc = target: Glc(a1-4)Glc
# Procedure, shortened: as §1
# Glc(a1-6)Glc(a1-6)Glc = target: Glc(a1-6)Glc(a1-6)Glc
# Procedure, shortened: as §1
# Glc(b1-4)Glc = target: Glc(b1-4)Glc
# Procedure, shortened: as §1
# Glc(b1-6)Glc = target: Glc(b1-6)Glc
# Procedure, shortened: as §1
# GlcA(b1-3)Gal = target: GlcA(b1-3)Gal
# Procedure, shortened: as §1
# GlcA(b1-3)GlcNAc = target: GlcA(b1-3)GlcNAc
# Procedure, shortened: as §1
# GlcA(b1-6)Gal = target: GlcA(b1-6)Gal
# Procedure, shortened: as §1
# [5] = target: GlcNAc(a1-3)Gal(b1-4)GlcNAc
# Procedure, shortened: as §1
# [6] = target: GlcNAc(a1-4)Gal(b1-3)GlcNAc
# Procedure, shortened: as §1
# [7] = target: GlcNAc(a1-4)Gal(b1-4)GalNAc
# Procedure, shortened: as §1
# [8] = target: GlcNAc(a1-4)Gal(b1-4)GlcNAc
# Procedure, shortened: as §1
# [9] = target: GlcNAc(a1-4)Gal(b1-4)GlcNAc(b1-3)Gal(b1-4)Glc
# Procedure, shortened: as §1
# [10] = target: GlcNAc(a1-4)Gal(b1-4)GlcNAc(b1-3)Gal(b1-4)GlcNAc
# Procedure, shortened: as §1
# [11] = target: GlcNAc(a1-4)Gal(b1-4)GlcNAc(b1-3)Gal(b1-4)GlcNAc(b1-3)Gal(b1-4)GlcNAc
# Procedure, shortened: as §1
# [12] = target: GlcNAc(a1-4)Gal(b1-4)GlcNAc(b1-3)Gal(b1-4)[Fuc(a1-3)]GlcNAc(b1-3)Gal(b1-4)[Fuc(a1-3)]GlcNAc
# Procedure, shortened: as §1
# [13] = target: GlcNAc(a1-6)Gal(b1-4)GlcNAc
# Procedure, shortened: as §1
# [14] = target: GlcNAc(b1-2)Gal(b1-3)GalNAc
# Procedure, shortened: as §1
# [15] = target: GlcNAc(b1-2)Man(a1-3)[GlcNAc(b1-2)Man(a1-6)]Man(b1-4)GlcNAc(b1-4)GlcNAc
# Procedure, shortened: as §1
# [16] = target: GlcNAc(b1-2)Man(a1-3)[GlcNAc(b1-2)Man(a1-6)]Man(b1-4)GlcNAc(b1-4)[Fuc(a1-6)]GlcNAc
# Procedure, shortened: as §1
# GlcNAc(b1-3)Gal = target: GlcNAc(b1-3)Gal
# Procedure, shortened: as §1
# [17] = target: GlcNAc(b1-3)Gal(b1-3)GalNAc
# Procedure, shortened: as §1
# GlcNAc(b1-3)Gal(b1-4)Glc = target: GlcNAc(b1-3)Gal(b1-4)Glc
# Procedure, shortened: as §1
# [18] = target: GlcNAc(b1-3)Gal(b1-4)GlcNAc
# Procedure, shortened: as §1
# [19] = target: GlcNAc(b1-3)Gal(b1-4)GlcNAc(b1-3)Gal(b1-4)GlcNAc
# Procedure, shortened: as §1
# GlcNAc(b1-3)GalNAc = target: GlcNAc(b1-3)GalNAc
# Procedure, shortened: as §1
binder,measurement,setting,value
"MVL (Microcystis viridis), Q9RHG4 (protein) MASYKVNIPAGPLWSNAEAQQVGPKIAAAHQGNFTGQWTTVVESAMSVVEVELQVENTGIHEFKTDVLAGPLWSNDEAQKLGPQIAASYGAEFTGQWRTIVEGVMSVIQIKYTF",glycan array binding signal (z-score),Gal3S(b1-4)GlcNAc,-0.245
same,glycan array binding signal (z-score),Gal3S(b1-4)GlcNAc6S,-0.238
same,glycan array binding signal (z-score),[1],-0.232
same,glycan array binding signal (z-score),Gal3S4S(b1-4)GlcNAc,-0.243
same,glycan array binding signal (z-score),Gal3S6S(b1-4)GlcNAc,-0.226
same,glycan array binding signal (z-score),Gal3S6S(b1-4)GlcNAc6S,-0.248
same,glycan array binding signal (z-score),Gal4S(b1-4)GlcNAc,-0.223
same,glycan array binding signal (z-score),Gal4S6S(b1-4)GlcNAc,-0.238
same,glycan array binding signal (z-score),Gal6S(b1-4)Glc,-0.237
same,glycan array binding signal (z-score),Gal6S(b1-4)Glc6S,-0.224
same,glycan array binding signal (z-score),Gal6S(b1-4)GlcNAc,-0.229
same,glycan array binding signal (z-score),Gal6S(b1-4)GlcNAc6S,-0.228
same,glycan array binding signal (z-score),GalNAc(a1-3)Gal,-0.231
same,glycan array binding signal (z-score),GalNAc(a1-3)GalNAc,-0.243
same,glycan array binding signal (z-score),GalNAc(b1-3)Gal,-0.241
same,glycan array binding signal (z-score),[2],-0.243
same,glycan array binding signal (z-score),[3],-0.245
same,glycan array binding signal (z-score),GalNAc(b1-3)GalNAc,-0.242
same,glycan array binding signal (z-score),GalNAc(b1-4)GlcNAc,-0.14
same,glycan array binding signal (z-score),[4],0.004
same,glycan array binding signal (z-score),Glc(a1-4)Glc,-0.219
same,glycan array binding signal (z-score),Glc(a1-6)Glc(a1-6)Glc,-0.228
same,glycan array binding signal (z-score),Glc(b1-4)Glc,-0.238
same,glycan array binding signal (z-score),Glc(b1-6)Glc,-0.218
same,glycan array binding signal (z-score),GlcA(b1-3)Gal,-0.233
same,glycan array binding signal (z-score),GlcA(b1-3)GlcNAc,-0.239
same,glycan array binding signal (z-score),GlcA(b1-6)Gal,-0.246
same,glycan array binding signal (z-score),[5],-0.253
same,glycan array binding signal (z-score),[6],-0.209
same,glycan array binding signal (z-score),[7],-0.182
same,glycan array binding signal (z-score),[8],-0.218
same,glycan array binding signal (z-score),[9],-0.236
same,glycan array binding signal (z-score),[10],-0.172
same,glycan array binding signal (z-score),[11],-0.228
same,glycan array binding signal (z-score),[12],0.006
same,glycan array binding signal (z-score),[13],-0.223
same,glycan array binding signal (z-score),[14],-0.243
same,glycan array binding signal (z-score),[15],1.66
same,glycan array binding signal (z-score),[16],1.05
same,glycan array binding signal (z-score),GlcNAc(b1-3)Gal,-0.241
same,glycan array binding signal (z-score),[17],-0.239
same,glycan array binding signal (z-score),GlcNAc(b1-3)Gal(b1-4)Glc,-0.231
same,glycan array binding signal (z-score),[18],-0.24
same,glycan array binding signal (z-score),[19],-0.246
same,glycan array binding signal (z-score),GlcNAc(b1-3)GalNAc,-0.231
